# Laboratory results: the supplement of paper PMC11417369
# The list shows a part of the results.
# Test system: PfAP2-HC AP2 domain (GST-tagged)
# Assay: gcPBM binding intensity (ln(normalized median fluorescence intensity)); higher = stronger DNA binding
# How it was run: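 After 1 h on an Agilent 4 × 180k array of primer-extended double-stranded 36-bp intergenic genomic probes and negative controls, bound GST-tagged P. falciparum DNA-binding domains were detected with Alexa488 anti-GST antibody and scanned at 488 nm. The domains had been expressed in E. coli, and binding took place in 1× PBS with 1% milk, 0.2 mg/ml BSA, 0.5% salmon testes DNA and 0.03% Triton X-100. Binding intensity is the highest Masliner-normalised natural-log median intensity across replicate spots of either probe orientation.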
row,Sequence,gcPBM binding intensity (ln)
1,TGATGCAAAATATATACACACATATATATATATATA [CACACA_site3052],9.69
2,CATATACATTGTATATGTACATATATATATATATAT [XGTACX_site3772],9.8
3,GATTATATATTAAAAAGTACTTTATAAATACTTCTA [XGTACX_site8992],9.39
4,CAAAGCATAGTATGATGTACAAATGTTCCTATAATA [XGTACX_site8642],9.76
5,TCTTATTATAAAAGGAGTACATCAATTAGATGTTCC [XGTACX_site8465],9.32
6,ATATATATATAATATTGTACATAGTAGACATCACAC [XGTACX_site4649],9.94
7,TATATATGTATAAGAGTGCATATGCATATATGTATA [GTGCAC_site9692],9.83
8,TAAAATATGGAAATCACACATTTATTAAAATATATA [CACACA_site4623],9.55
9,TTATGTTTATACACTACACACATTATTCATAAAAAA [CACACA_site4637],9.74
10,TATGGGTTTATATAGGTGCAATATATGTATATATAA,9.56
11,TATACCACCCGATATACACACTTGTAGACATCTTTT [CACACA_site4268],9.78
12,ACAAAACTCTTTAATTGTACAAATATAATATAAAAA [XGTACX_site5690],9.6
13,TATATAGTTTATATTTGTACATATAGACATTTATAA [XGTACX_site6414],9.49
14,AACCATTGGGAAAGGGTGCACATATATATATATATA,9.74
15,AGCAATATTTATTAAAGTACGTAAAAAAAATTCTCA [XGTACX_site6550],9.62
16,TGTTTTTAAAAATATACACACACAGATATTATATAT [CACACA_site8162],10.2
17,TTTTATATTTATTTTTGTACATAAATGATCTCAAAT [XGTACX_site7768],9.47
18,AAAAAAAAAAAATTATGTACATATTATATATAATGG [XGTACX_site2885],9.56
19,TAAAATATGTCATGGGTGCTTCTTTTTATACCTATG [GTGCAC_site9888],10
20,AAATATTATAATAATTGTACTATATATACAGTTATT [XGTACX_site1963],9.62
21,ATATATATATATTTATGTACGCATTTATAGACGTAG [XGTACX_site6031],9.64
22,TATGATAACCATAATTGTACAGAATGAAACGTAAAT [XGTACX_site1653],9.84
23,AGAAAAAAAAAAAAAAATAAAAAAATAAATAAATAA [GTGCAC_negctrl_site161],9.34

row,Sequence,gcPBM binding intensity (ln)
1,ACTTAAATAATACATACACACATGTACTTACAGAAA [CACACA_site8458],9.8
2,CACAAATATATACATACACACATATATACACATATA [CACACA_site8024],9.94
3,AAAACGCAGTTTAATATACACACCAAAAAAAAAAAA [CACACA_site3036],9.65
4,TTTGAGATGTGGTGTACACAAAATTAGGTACACATC [CACACA_site5773],9.74
5,TATTAATTTCGGGAAGTGCATTATGTTTATAGAATA,9.34
6,ATTATATAAGTACACAAACAAGTATGAGATTCAAAA [GTGCAC_negctrl_site119],9.79
7,TGTTTTAAACTAATTTGTACATAGTTATTTATATTT [XGTACX_site7196],9.68
8,CCATATATTTGGTATAGTACTTTTTATTTTATTTCA [XGTACX_site8933],9.69
9,AATTGTTTTTTTTTCTTATTTTATGTTATACACACA [TGCATGCA_negctrl_site380],9.9
10,AAAAAAAAAAAAAACACATGCAGAAGAAAAAAAATA [TGCATGCA_site545],9.72
11,AAATGAACATATATGTGTACTTATATTTTTCTAAAT [XGTACX_site3388],9.75
12,ATATATTTTTCTTTACGTACGAAGCAAAATAACATT [XGTACX_site8145],9.52
13,AAAAAAAAAAAAAAAGTGCATATATAAATATTGTAT [GTGCAC_site9459],9.59
14,TCATTAAATGTTTAGGTGCATACTTTAATTTTTAAT [GTGCAC_site9906],9.59
15,TAACTTTGGAGGAGCTGTACGATTATTTTGATCCTT [XGTACX_site2514],9.62
16,AAAAAATTTCAAATAACACACACTAATATAAATATG [CACACA_site6783],10.4
17,TTTAAAAAATAATATTGTACTATTCTCCCAATTTCT [XGTACX_site7079],9.46
18,TTTTTATATAATTTAACACACATTTCATATAAAAAA [CACACA_site3103],9.27
19,ATGTGAAAATAAGACACACTCAAAAGGTTTATATTA [CACACA_site4595],9.78
20,ATATACTGTATGAAAGCACACATACTTATTACTAAC [CACACA_site9384],9.79
21,TGGGAAAAAATATATGCACACCCCCCAAAAAAAAAA [CACACA_site8696],10.6
22,AAAAAATGTTATAAAAGTACATAATTTATCTACCAT [XGTACX_site3035],9.6
23,AATTCTTTATTATATGCACACGTACATATAATATAT [CACACA_site8621],9.84

row,Sequence,gcPBM binding intensity (ln)
1,AAAAAAAAAAAAAAGTGTACCTTCAAAATAATATTG [XGTACX_site2844],9.52
2,ATAAATATAAAACACACACACATATTATATATATAT [CACACA_site3064],10.3
3,CTATATATAACCCATGTGCACTTTTTATGTACAATA,9.75
4,TCTTTCCTTATTAAAACACACAAATACATTATTTAA [CACACA_site2147],9.45
5,CCTTTTTCTACTTTCTCACACATATTAAGAATTATA [CACACA_site5621],9.55
6,AAAAAATGAAAAAACTGTACGCAATTTTGTTTTTAT [XGTACX_site2299],9.64
7,AAGTTTTTTTTTATCACACACAAAAAAAAAAATATA [CACACA_site1362],9.9
8,GTTCATAAAAATTTTTGTACCCATAAAATATTCCTC [XGTACX_site8611],9.54
9,GTAGGTGTTTTTGGTTGTACATATAAATATATATAC [XGTACX_site3380],9.84
10,TTTTTTTTTTTTAATTGTACTTATTAAAAAAAGCAA [XGTACX_site8713],8.86
11,TTTCTTCTTCAATGTTGTACTTTTCTCTTTTCTTAA [XGTACX_site1017],9.66
12,GATATATATGTTCACACACACATGGAAATATATATA [CACACA_site4371],10.1
13,TTAAGATCCTAAAAAACACACAATTGCGAATAATAA [CACACA_site6005],9.79
14,ATATCATAAAAAATGTGTACATATATGAACATATAA [XGTACX_site2239],9.6
15,GGAAATTAACAGAACACAATGTAACAATTTCTAACA [CACACA_negctrl_site1250],9.69
16,AGATAAATATATTGTAGTACAGGAGCATAAATATAT [XGTACX_site8267],9.84
17,TATTTTCATTATACTACTTCGAAGATACCCTTTTTT [CACACA_negctrl_site256],9.6
18,TATAAACATTAAAGGTGTACAATTTAATTTCAATTT [XGTACX_site2944],9.56
19,GTTCTTCCTTGTAAATGTACAAATACAAAATGTTCC [XGTACX_site6738],9.58
20,CATTATTCTTTTAATATACACACTTTGTCTTTTCGC [CACACA_site2762],9.74
21,ATATTATTATATATAGTGCATATTATTATTTTTATT,9.7
22,TCTCATAGTAAACACACACACACACCCACATATATA [CACACA_site5034],10.6
23,TATGCACTTTAGGGCAGTACGTCAACATTATCTTTA [XGTACX_site3382],9.52

row,Sequence,gcPBM binding intensity (ln)
1,CCTCATACGAAATATAAACACACATACAATAAATAA [CACACA_site8620],10
2,ATAAATTTTTTTTTTTTTTTTTTTTTTTTTTTTTTT [CACACA_negctrl_site508],9.23
3,ATTTTTTTCATAGACACACACAATATATCTGTTTCC [CACACA_site3023],10.5
4,TGTTAAAATTATTTGGTGCACTTGTTTTACCTTATT,9.74
5,TATATTTATTATAACACACACATATAAATATTATAG [CACACA_site6726],9.91
6,TTTTTTTTTTTTCAATCACACATGTTTTAATTATTT [CACACA_site5532],9.66
7,TGTACGTTTTATAACACACACACAAAAAAAAAAAAA [CACACA_site3875],10.5
8,TGTAATAATATTTATGTGCACATATATTAAACTATA [GTGCAC_site9584],9.63
9,TCATTTCACAGACACACACACACAAGATATTTCCTT [CACACA_site7774],11.1
10,AAGATAAAATGATGCACACAAAAGGGTGTAATATAT [CACACA_site1706],10.2
11,GAAGTTTTCTTAAAGATGCACTTTTTAAAAATAAAA [GTGCAC_site9941],8.97
12,TCTTCTTTTTTTTTTTTGTATTATTATAAATATTAT [CACACA_negctrl_site1668],9.76
13,TTTTTTTTTTTTAATGCACACAATATATAATATGTA [CACACA_site3694],9.7
14,AATATACAAATAAAGGTGCGAGATATTTTTACTTTT,9.82
15,ACAATATGCAAAAAGTGTACACATTCATTTATATAA [XGTACX_site1061],10.1
16,ATAAAAAAAGATGAACGTACATATATTTTAAAAATC [XGTACX_site5950],9.76
17,TATTAAATATATATTACATGCAAAAAAAAAAAACAA [TGCATGCA_site705],9.76
18,GTAAATATTTGTTGGGTGCTATCAATTATTTCAAAG,9.57
19,TTTTTTTTGAAGAATACATGCATATTTTCTATATTC [TGCATGCA_site43],9.59
20,ATATAAAATATGTATGAGGAATAAAATTAAAAAAAA [XGTACX_negctrl_site173],9.83
21,CGGCACATTCTATATACACACATATAAATATATACA [CACACA_site566],9.71
22,TACAATTCGTAATACACACACATATAAATAAATATT [CACACA_site7720],10
